B1: PR004432: anti-5T4 HCAb antibody, SEQ ID NO: 69 (antibody)
heavy: EVQLQQSGPGLVKPSQTLSLTCAISGDSVSNNYAAWNWIRQSPSRGLEWLGRTYYRSKWYNDYAVSVKSRITINPDTSKNQFSLQLNRVTPEDTAVYYCARDNYYGSGSPPVDALDIWGQGTMVTVSS[not shown - human IgG1 Fc]
B2: PR004432-ADC (conjugate)
heavy: B1 heavy
B3: PR002129: anti-ROR1 antigen-binding protein with scFv-Fc dimer structure, SEQ ID NO: 71 (protein)
chain: QVQLVQSGGGVVQPGRSLRLSCAASGFTFSSYGMHWVRQAPGKGLEWVAVIWYDGSNKDYADSVKGRFTISRDTSKNTLYLQMNSLRAEDTAVYYCAREQARSFDLWGRGTLVTVSSGGGGSGGGGSGGGGSDIQLTQSPYSLSASVGDRVTITCRASQTINNWLAWYQQKPGKAPKLLIYKASSLESGVPSRFSGSGSGTEFTLTISSLQPDDFATYYCQQYKLYSPMYTFGQGTKVEIKGGGAS[not shown - human IgG1 Fc]
modifications: PR002129 SCFV

Key:
[1] = Melting temperature (Tm) by Uncle protein stability platform; format: physicochemical
Description: Unchained Labs (Uncle) is a multifunctional one-stop protein stability analysis platform that characterizes protein stability by total fluorescence, static light scattering (SLS) and dynamic light scattering (DLS) assay methods. The parameters of melting temperature (Tm), aggregation temperature (Tagg) and particle size (diameter) can be obtained simultaneously for the same group of samples. In this example, an “Tm & Tagg with optional DLS” application of Uncle was selected for the determination. 9 μL of sample was added to a Uni tube, and the temperature was set to gradually increase from 25° C. to 95° C. at a gradient of 0.3° C./min. Four acquisitions of data were performed at the beginning and end of DLS assay, each for 5 s. After the experimental run was finished, the Tm value of each sample was calculated according to a barycentric mean (BCM) formula using the Uncle analysis software, the Tagg value was calculated from a curve (aggregation curve) of fluorescence intensity of SLS at the wavelength of 266 nm or 473 nm, and the particle size and dispersion of the samples were calculated from DLS related functions.
This example is to study the influence of the disulfide bond of Cys-220 on molecular structural stability. […]

[2] = target: T1, HCC1954 cells highly expressing human 5T4 (Homo sapiens, UniProt Q13641); assay: FACS binding to cells highly expressing 5T4; settings: flow cytometry FACS
T1 construct: a human breast cancer cell strain HCC1954 (ATCC, CRL-2338) highly expressing human 5T4; host or cells: HCC1954
T1 sequence (Q13641 32-420): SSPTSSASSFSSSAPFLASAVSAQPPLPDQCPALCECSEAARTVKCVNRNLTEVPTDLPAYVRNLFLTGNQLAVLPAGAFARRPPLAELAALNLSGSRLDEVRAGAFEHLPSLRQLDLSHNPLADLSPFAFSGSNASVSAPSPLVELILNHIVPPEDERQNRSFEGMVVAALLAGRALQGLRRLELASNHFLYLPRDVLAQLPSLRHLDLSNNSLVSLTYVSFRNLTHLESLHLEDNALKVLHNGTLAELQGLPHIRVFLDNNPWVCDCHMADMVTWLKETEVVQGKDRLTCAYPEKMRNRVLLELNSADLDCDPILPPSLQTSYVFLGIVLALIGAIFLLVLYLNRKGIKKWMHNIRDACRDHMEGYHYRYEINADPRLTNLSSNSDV
Procedure: Specifically, the cell density was adjusted to 1×10^6 cells/mL. The cells were seeded in a 96-well V-bottom plate (Corning, #3894) at 100 μL/well, followed by the addition of test antibodies diluted in a 3-fold gradient at a concentration that was 2 times the final concentration, each at 100 μL/well. The cells were incubated at 4° C. for 1 h away from light. Thereafter, the cells in each well were rinsed twice with 100 μL of pre-cooled PBS, and centrifuged at 500 g at 4° C. for 5 min, and then the supernatant was discarded. Thereafter, a fluorescent secondary antibody (Alexa Fluor 488-conjugated AffiniPure Goat Anti-Human IgG, Fcγ Fragment Specific, Jackson ImmunoResearch Inc., #109-545-098, diluted in a 1:500 ratio) was added at 100 μL/well, and the plate was incubated at 4° C. for 30 min away from light. The cells in each well were then rinsed twice with 100 μL of pre-cooled PBS and centrifuged at 500 g at 4° C. for 5 min, and then the supernatant was discarded. Finally, the cells in each well were resuspended in 200 μL of pre-cooled PBS. Fluorescence signal values were read using a BD FACS CANTOII flow cytometer, and the data were processed and analyzed using FlowJo v10 (FlowJo, LLC) software.

[3] = tested on: HCC1954 cells; assay: Cytotoxic killing experiment (Example 8.5), HCC1954; settings: 72 h, CellTiter-Glo; proteins up to 30 nM, mc-vc-PAB-MMAE up to 60 nM
Procedure: This example was to study the cell killing activity of the anti-5T4 antibody coupling product PR004432-ADC against a human breast cancer cell strain HCC1954 (ATCC, CRL-2338) highly expressing human 5T4.
The HCC1954 cells were seeded in a 96-well plate (Perkin Elmer, #6005225) at 4000 cells/50 μL/well and incubated overnight at 37° C. with 5% CO2. Then, a test sample serially pre-diluted was added at 50 μL/well. PR004432, PR004432-ADC and PR004433-ADC were diluted at a 3-fold concentration gradient from the highest final concentration of 30 nM, and mc-vc-PAB-MMAE was diluted at a 3-fold concentration gradient from the highest final concentration of 60 nM. In addition, a well without the test sample was set as a control well. Thereafter, the plates were incubated at 37° C. with 5% CO2 for 72 h, a CellTiter-Glo cell viability detection reagent (Promega, #G7573) was added, then the plates were incubated at room temperature for at least 10 min to obtain stable luminescence signals, and the luminescence values were detected using a microplate reader. The cell viability was calculated based on the luminescence values by the following formula:
Cell viability (%)=(A/B)×100% […]
(§1) The data were processed and analyzed by plotting using GraphPad Prism 8 software, and binding curves of the antibodies to target cells, EC50 values and other parameters were obtained through four-parameter nonlinear fitting.

[4] = tested on: HEK293T-hBCMA cells; assay: Cytotoxic killing experiment (Example 9.5), HEK293T-hBCMA; settings: 72 h, CellTiter-Glo; proteins up to 10 nM, mc-vc-PAB-MMAE up to 20 nM
Procedure: The HEK293T-hBCMA, NCI-H929, HEK293T and SNU-16 cells were seeded in 96-well plates (Perkin Elmer, #6005225) respectively, with the following seeded cell number: 2500 cells/50 μL/well (HEK293T-hBCMA), 5000 cells/50 μL/well (NCI-H929), 2500 cells/50 μL/well (HEK293T), and 5000 cells/50 μL/well (SNU-16). Then, the plates were incubated overnight at 37° C. with 5% CO2. Then, a test sample serially pre-diluted was added at 50 μL/well. PR004433, PR004433-ADC and PR004432-ADC were diluted at a 3-fold concentration gradient from the highest final concentration of 10 nM, and mc-vc-PAB-MMAE was diluted at a 3-fold concentration gradient from the highest final concentration of 20 nM. In addition, a well without the test sample was set as a control well. Thereafter, the plates were incubated at 37° C. with 5% CO2 for 72 h, a CellTiter-Glo cell viability detection reagent (Promega, #G7573) was added, then the plates were incubated at room temperature for at least 10 min to obtain stable luminescence signals, and the luminescence values were detected using a microplate reader. The cell viability was calculated based on the luminescence values by the following formula: […]
as §1

[5] = tested on: NCI-H929 cells; assay: Cytotoxic killing experiment (Example 9.5), NCI-H929; settings: 72 h, CellTiter-Glo; proteins up to 10 nM, mc-vc-PAB-MMAE up to 20 nM
Procedure: The HEK293T-hBCMA, NCI-H929, HEK293T and SNU-16 cells were seeded in 96-well plates (Perkin Elmer, #6005225) respectively, with the following seeded cell number: 2500 cells/50 μL/well (HEK293T-hBCMA), 5000 cells/50 μL/well (NCI-H929), 2500 cells/50 μL/well (HEK293T), and 5000 cells/50 μL/well (SNU-16). Then, the plates were incubated overnight at 37° C. with 5% CO2. Then, a test sample serially pre-diluted was added at 50 μL/well. PR004433, PR004433-ADC and PR004432-ADC were diluted at a 3-fold concentration gradient from the highest final concentration of 10 nM, and mc-vc-PAB-MMAE was diluted at a 3-fold concentration gradient from the highest final concentration of 20 nM. In addition, a well without the test sample was set as a control well. Thereafter, the plates were incubated at 37° C. with 5% CO2 for 72 h, a CellTiter-Glo cell viability detection reagent (Promega, #G7573) was added, then the plates were incubated at room temperature for at least 10 min to obtain stable luminescence signals, and the luminescence values were detected using a microplate reader. The cell viability was calculated based on the luminescence values by the following formula:
Cell viability (%)=(A/B)×100%
In which, A=experimental well (target cells+test sample+medium); B=control well (target cells+medium)
as §1
In this example, the method described in 0 was used to study the specific cell killing activity of antigen-binding proteins PR006468 (including a mouse IgG2c hinge region), PR004433 (including a human IgG1 hinge region) and coupling products PR006468-ADC and PR004433-ADC thereof against tumor cells NCI-H929 (ATCC, CRL-9068) highly expressing human BCMA.
In this example, the method described in 0 was used to study the specific cell killing activity of PR005744 and a coupling product PR005744-ADC thereof against tumor cells NCI-H929 (ATCC, CRL-9068) highly expressing human BCMA.

[6] = target: T2, PanC-1 cells highly expressing human ROR1 (Homo sapiens, UniProt Q01973); assay: FACS binding to cells highly expressing ROR1; settings: flow cytometry FACS
T2 construct: tumor cells PanC-1 (ATCC, CRL-1469) highly expressing human ROR1; host or cells: PanC-1
T2 sequence (Q01973 30-937): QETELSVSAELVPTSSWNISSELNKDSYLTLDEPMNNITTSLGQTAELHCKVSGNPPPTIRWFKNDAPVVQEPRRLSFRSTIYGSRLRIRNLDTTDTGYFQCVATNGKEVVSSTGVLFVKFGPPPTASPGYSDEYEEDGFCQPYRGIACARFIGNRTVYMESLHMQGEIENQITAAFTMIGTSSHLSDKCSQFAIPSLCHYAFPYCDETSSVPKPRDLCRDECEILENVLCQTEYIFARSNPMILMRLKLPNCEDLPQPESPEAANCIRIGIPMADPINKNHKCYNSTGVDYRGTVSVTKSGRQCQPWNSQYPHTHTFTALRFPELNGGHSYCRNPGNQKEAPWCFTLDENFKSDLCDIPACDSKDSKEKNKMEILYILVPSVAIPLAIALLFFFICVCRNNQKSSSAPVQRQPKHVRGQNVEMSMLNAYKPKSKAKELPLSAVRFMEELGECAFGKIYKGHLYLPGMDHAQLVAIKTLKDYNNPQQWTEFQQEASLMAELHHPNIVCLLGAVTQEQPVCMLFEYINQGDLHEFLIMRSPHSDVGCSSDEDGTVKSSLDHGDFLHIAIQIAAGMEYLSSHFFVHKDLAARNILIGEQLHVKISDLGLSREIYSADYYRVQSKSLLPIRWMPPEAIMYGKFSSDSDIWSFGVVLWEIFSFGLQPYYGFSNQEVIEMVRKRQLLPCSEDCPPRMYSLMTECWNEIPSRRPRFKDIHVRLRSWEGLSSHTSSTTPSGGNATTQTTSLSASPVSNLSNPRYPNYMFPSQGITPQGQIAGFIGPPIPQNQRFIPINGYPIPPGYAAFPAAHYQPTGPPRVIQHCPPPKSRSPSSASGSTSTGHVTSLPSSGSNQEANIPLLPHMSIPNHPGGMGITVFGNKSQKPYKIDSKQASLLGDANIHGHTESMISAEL
Procedure: The binding ability of the antigen-binding protein to tumor cells PanC-1 (ATCC, CRL-1469) highly expressing human ROR1 was determined by flow cytometry FACS. Specifically, the cells were digested and resuspended in a DMEM complete medium, and the cell density was adjusted to 1×10^6 cells/mL. The cells were seeded in a 96-well V-bottom plate (Corning, #3894) at 100 μL/well, followed by the addition of test binding proteins diluted in a 3-fold gradient at a concentration that was 2 times the final concentration, each at 100 μL/well. The cells were incubated at 4° C. for 1 h away from light. Thereafter, the cells in each well were rinsed twice with 100 μL of pre-cooled PBS, and centrifuged at 500 g at 4° C. for 5 min, and then the supernatant was discarded. Thereafter, a fluorescent secondary antibody (Alexa Fluor 488-conjugated AffiniPure Goat Anti-Human IgG, Fcγ Fragment Specific, Jackson ImmunoResearch Inc., #109-545-098, diluted in a 1:500 ratio) was added at 100 μL/well, and the plate was incubated at 4° C. for 30 min away from light. The cells in each well were then rinsed twice with 100 μL of pre-cooled PBS and centrifuged at 500 g at 4° C. for 5 min, and then the supernatant was discarded. […] Fluorescence signal values were read using a BD FACS CANTOII flow cytometer, and the data were processed and analyzed using FlowJo v10 (FlowJo, LLC) software.

[7] = Coupling product components (DAR) by HIC-HPLC; settings: coupling product; Experiment 20210202-2: protein 6.5 mg/ml, TCEP 2.3 x, VcMMAE 7.0 x
Procedure: In this example, analytical hydrophobic interaction chromatography (HIC) was used to analyze the protein sample for purity and hydrophobicity. […] The program for HPLC was set: a linear gradient from 100% buffer A (25 mM phosphate buffer, 1.5 M ammonium sulfate ((NH4)2SO4), pH 7.0-7.2) to 100% buffer B (20 mM phosphate buffer, 20% isopropyl alcohol (IPA), pH 7.0-7.2) over about 22 min; flow rate: 0.7 mL/min; protein sample concentration: 1 mg/mL; and injection volume: 20 μL. The detection wavelength was 280 nm. Operation was performed at room temperature. After being recorded, the chromatogram was integrated using ChemStation software and relevant data were calculated. An analysis was generated, with the retention time of the components with different molecular sizes in the sample reported; the number of coupling molecules carried by different components of the coupling product could be inferred by different retention time.

Molecule	Tm1 (minimum melting temperature) [1] [°C]	binding activity to HCC1954 cells [2]	cytotoxic killing against HCC1954 cells [3]	cytotoxic killing against HEK293T-hBCMA cells [4]	cytotoxic killing against NCI-H929 cells [5]	binding activity to PanC-1 cells [6]	Average DAR [7]
B1	70.66	strong specific binding activity	–	–	–	–	–
B2	70.43	strong specific binding activity	effective and specific cytotoxic killing	cannot produce effective killing	cannot produce effective killing	–	–
B3	–	–	–	–	–	strong specific binding activity	2.07
